Reference: article PMC10726135
The list shows a part of the results. At the low end of the ranking the order means little. The protein was read in a cell extract, so binding may be indirect.

Target: T1, HNF4alpha2 (COS-7 nuclear extract) (UniProt P41235)
T1 sequence: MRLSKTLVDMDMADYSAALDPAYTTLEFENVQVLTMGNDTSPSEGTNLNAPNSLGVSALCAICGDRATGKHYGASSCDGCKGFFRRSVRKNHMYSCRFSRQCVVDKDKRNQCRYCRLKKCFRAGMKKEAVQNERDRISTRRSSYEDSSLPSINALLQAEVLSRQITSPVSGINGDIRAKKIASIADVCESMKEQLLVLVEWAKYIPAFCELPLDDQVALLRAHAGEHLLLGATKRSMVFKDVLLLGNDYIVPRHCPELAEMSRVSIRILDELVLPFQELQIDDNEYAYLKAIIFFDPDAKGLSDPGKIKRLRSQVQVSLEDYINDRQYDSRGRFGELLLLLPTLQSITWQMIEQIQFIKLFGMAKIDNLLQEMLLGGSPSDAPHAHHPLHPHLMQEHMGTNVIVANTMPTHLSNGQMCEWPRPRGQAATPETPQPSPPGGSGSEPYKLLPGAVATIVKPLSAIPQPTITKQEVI
Test: protein-binding microarray
Settings: COS-7 nuclear extract on double-stranded Agilent 4x180k PBM; binding buffer, salt, pH and temperature not given; high values mean tight binding; double strand, one strand shown; sequences stand for … in …GCCTAGGGAGATTAGAGTATCGGTCGA

Sequence | binding signal (log2 normalized intensity)
CACGGTGGACATTGTCCAAGGGCTGTAGCA | 0.404
GGGTTCAGATGAAAGGCGGCAACTTCTTCA | -1.06
TTCTTTTATCACTTTGTAATGTCCCTCTTT | 2.03
ACCCATGTTTGCCCTTGATAAGAGCTGCTC | 0.457
TCTCTGCTGGGCAGAGGGACAACTGAGTTA | 0.618
AAGCAATAGGGTTCGGTGCAATAACACCTA | -1.01
TCACGGCAGCTTGTACCCTTCTTTCCACCC | 1.54
AAGGCTTTGAAGTCTGGTGGCAAGTACCCT | -0.842
AGGTGGTTCACAAATAGCAGAAAATCCAGG | -1.13
AGAATTGAAGAGAGTTAGGGCCTTGCTATG | -0.979
ACAGCTCTTGTGCTCTGGACATACCTCTAA | -1.13
ACCTGGGCAACAGGGAGCCCTTATATCCAC | -1.12
CAAAGGACCAAAAGATATTTGCTGCTGACA | -1.15
GGAATGTGGATGCTGGAATGAGGGAGGCAG | -0.881
ACTACTAACCGAAAGTCTGACCCTTGACCA | 6.42
CTGAACTTTAGCTCACTGTTGAACATTAAC | 1.19
CCTTCTTGGCAAGTTAATGTGGCCTAATGT | 1.85
CCAATGTTTACCAGCTCTGTTGCTTATCTT | 1.05
ACAGCCTCTAAGCACGGCCAGGATTAACCA | -1.09
AGGACATAGTCCTCTGCATATTTCTGCTAC | -1.08
CCTTTTATTTTCTTATCTGCCTAGGCATTT | 1.33
TGAAATTTGTATCTTGGGTTAGGCCTTTAG | 0.964
CCACTATTCATAAAGTTCTCTGGCAAATAT | 1.24
TGACAAAGTCCATCTGGGCAAGGTGTCAAC | 1.63
TTCACCCGCGCCCAGCGGTTCCGGGCGGCA | -1.18

Sequence | binding signal (log2 normalized intensity)
ACTCTACAACAAAGGAAATGAAGCAACACT | -1.13
TGCGAGCGCCTTGCGAGCGTACGCAGGGCG | -1.17
CATGCAATCACACTAATCTGTCAGAAAACC | -0.731
GCAGAAGGGATGGGAACCGACCTTTGGTTC | 5.13
GAAGGACACTTAGAGATAAGGTAACAGGCC | -1.02
AATGTGTGTTCTGCTGCCATTGGATGGAAT | 1.31
CAAAAACAATCAGGGGTTAGGGTGAAGTAA | -0.187
CTTAGTGATTAGAAGAAAAGAGTTGCTCAA | -1.07
AAGGATCAAGGACCTGCTCTGGGGCTACCT | -0.978
ATCATTCATGGGCCAAAGTTTGTTTCTTAT | 1.11
TTCTAAAGGCACAATCAGGGCTAAAGTCAG | -0.709
CTCCTCATTCCTTTCTAATCTCAAAGTGTC | 1.98
GTCAACAAGATTCCTTGAGCATTCCAAAAA | -0.715
AAGAGGCCCATCTCACACATAATGATACCA | -0.824
TTGGGATCAGACACGTGGGACCATGAGTAC | 1.41
GACCAGGTTGTGAGGGAGGGCACAGGCAAC | -0.298
CAGTTGGCCACCTTTGGCCGAAACTCAGTG | 0.83
ATAGCCACCAGGGCCTCTGAGATAAGGGTT | -1.17
TAAATCTCTAGTCCCAGCCTAGGCCTTTGT | 0.149
GAGGGGGCGGGGAGAGGGAAGAGTCTTCTC | -1.24
CGTGAGTATTTTTTCAACATATACTTTGAA | 1.53
AATTGAACTGAAATATGAACTGCTGCCTAC | -1.16
TGGAACTGAAGGCAGGAAAGGGCCTCTCAG | -1.18
GTGAAATAGGAGGATTTTATTCAGGTGGCC | 0.161
CTCCCCTTGTCTGATAAGATTCAGAACCCA | 1.54

Sequence | binding signal (log2 normalized intensity)
ATGTCATTTAAGACGAGTGGTTTGAGGTCA | 2.57
ATGATTGCTCTCTACTTGGTGGGAGGAGGG | -1.08
AGGGCACTGGGGATAGAATCAAAGGTCAGG | 3.66
CACAAATCTCCACAAACATACAACCATCAA | -1.22
AGATAATGGATTGGGGGCCATGTCTCAGCC | -0.499
GCAAAGACTCAAATCCAAGCTGGCTGGCTT | -1.14
CAGCTGGAAGGTATTGTCATTATTCCAGCT | -1.2
AACCCCTATGTTTAATGTATAAACCCTGAG | 0.6
AGGCCAGGGGCACTCTCTGTTATCAGACAC | -0.8
ACATCCCACTCAAAGGTCAGGGCTAGGCTG | -1.02
GAAGAGATCAAAGTTCTGTTTGTATAACCC | 2.12
CCCGCCTTTGACACAGGCGACCTTCGCTCG | 5.17
TTGGACTTCAGCCCAGGCTGATTATTCGTT | 1.94
GACAAACAATAGATAGGACAGTGGTCTTTA | -0.166
TTGCCCACCAATGATCAAAGGTTAGTCTTA | 3.63
GGGTTAGGGTTAGGGTAGGGTTAGGGTTAG | 0.856
CCATGAGTACCAGGTCAAAAGTTCAAACTT | 3.8
ACGTGTTTCCAGGCAAGGAATTTGGAATTC | 1.56
TATAGGTGTTTATAAAGTTGGGAAAAGTAA | 0.955
TCCTTGTACCTGCGACTGAGCCCTAAGAAA | -1.1
GTCAAACAAAAGAAAATGTGCCCTTTGGAC | 6.61
CAACGGCTCTGCATATGCCAACAGGTGCTC | -0.653
ACCGGTCTTTCCACTTGGGCTTCCTCATCT | -1.1
TCAGCCGGGGAAGGTGCAGGGCTACTGTGG | -1.08
TCTCAGTAGACTAACGTATGGACTTTCTGA | 2.9

Sequence | binding signal (log2 normalized intensity)
GAATGTGTGCTGGCCTGGTTCCTTCTCAGT | 1.06
TAATCTCCAAGTAACTGAAACTACAAAAGC | -1.18
GGATTGATTAGATAACATCTGGACTTTACA | 3.57
TATCAGTAGGTACGTTTGTGATACACCTTG | 1.69
CTACTATGTGCCAGACACTGCTCTAGGCAT | -1.05
AACTTTGTAACTAACAACTGACCTTGCAGG | 1.43
ATTCTTTCCCCTCCCTTCCACCTTTGCCCT | 6.19
TGTCAGGAACAACTTCGGGAATCTGACCTT | 3.77
ATCAGGAGACTGGAGAGACCAAAGGGTGAA | 0.37
CCTCTGATTTGCTGATCCTATTTACCTGCC | 0.37
CAATGACCTTTGACCCTTCTCTGGGAGAAA | 8.21
GTAGAGACCTGTCTTCCTGGTGACCTTTGT | 7.11
ATGCTTCCTACACGTGCTCTACTAGGCAGT | -1.06
ACAAAGGTCACACTCCTGTGCAAACATCTG | 0.545
GTTCTGTACTTTGGAACCTGAAAGAGCAAC | 3.87
GCATATTTAACTTGGCAAGGGGAGGCACTC | -0.835
TTATCATGTGGTATTAACATGTAAATATGA | 1.69
ATTGTAATCTTCAGCTGCCTTTTGCCAGGC | -0.0437
GCACAGCCTCCCTGTGGGGGAGGTGCAGAG | -1.14
GTCAGCCCTGGTCCAGGCCATGCAACAGCC | -1.22
GTTTTCTCTGAGTTTTGAGTGTGTTTCTTG | 1.53
CTAAAAACATTGTGGAGCTCATGTAAGGTC | 1.62
GTTCACCAGGAAGCAAGACAATGCACTCAT | -1.17
TTGGTGGGAGGAGGGGGGAGGGTCGGCAAC | -1.13
CCCTGGGGTAATAAAAGTGTACAAAGCACA | -0.091

Sequence | binding signal (log2 normalized intensity)
CAGGACCACACATTCCATTACTGCAGAGGC | -1.12
AGATACTGAACCTTGCACTATTGACCCAGT | 3.62
TTAATGAAATACAGTAGACTTTTTTTTTCT | -0.908
AAATGCCAATAGTGGCTTTGTTGATAACAA | -1.23
AGGCAACAATGCCTTGTGTACTGAGCAGGG | -0.682
AGGGAGGAGGGGAAGAAAGGAATGTGCCTG | -1.26
CTGGGCCTTAAAGCATGACAAAATAACGAA | -1.04
AAACATCAAGACAGGTGAGAGAGCTGCATT | -0.923
CTTCTTTGCTTAAGCATAGCAAAAGTGACC | 2.7
TGCCATTAAACACCTTATTTGGTCATGTTT | 1.67
TGTCTTGCTGATAAAGGGTGTGAGAGAGAA | 1.13
TGTAGAGGCCAGAGGTCGTGTCTCCATTCA | 0.698
GATAGCTAAACCAGATACGTGGGTCTGGTA | -0.635
GAATAAAACCTCCCCCAAACCAAAGAGAAA | 4.39
CAGCTGTTCCGTGTTCCAGAGCCTCCAAAG | -1.13
ACCCCAGCCTGCCCTCCTAGGGACAGGTGC | 2.75
CGCTCCTCCCACGTCGCTGCCGCAGATCCC | -1.06
CAATATCACATACCAGTAAAAACAACTGCC | -1.1
AGGCCCAGGGCAAGGACTCTAAAGGGAATA | -1.21
CTAGAAACAGAGCCCAAGGCAAAGCAGATG | -1.2
TACTTTTGCTCTGTTGAAGAATAAGACCGA | 0.948
GTCCGCCACTAGCAACAGCTGCAGTGAAAT | -1.14
GGCAAGTATGGTAAGGTCGACCTTTAAACG | 5.96
AGTCTGGAGGGGTGCGAAGGTCGAGGCCAG | 2.23
TTTAGCAACTGGTATGTTAGATTAGTGTGC | 1.13

Sequence | binding signal (log2 normalized intensity)
TCCAAACCGGTCTTTCCACTTGGGCTTCCT | -0.77
CACAAGCTTCCCTTTCTACTGCCAGCCAGG | -1.08
GGGGCCCCATCGACCTTTGCTCCCGACTCT | 8.11
TATGTGACATGGACATTCTATGGAATACAG | 0.588
AGCCCCCTTTCCCTTATCTTTGTTATCTGT | 2.5
TTTGTTCCTAGCCACCATGCTCGGCTGCCT | -0.771
AAGGAATGTAAGATGTTTGGGCGGGGAAAA | -0.858
CTCCCTTCCACCTTTGCCCTCCAAACTGAG | 3.52
TGGACTTTGAACCTCTCTTCTTTTTCGTCT | 6.71
CTTATCAGCAGGGTCTTTTTGACCTGTATC | 3.32
TAAGCCCACTAGGGAATGAAGCTAAAAGAA | -1.27
TTGGTTCCACATCAGAGAGTTCAAACTCTG | 1.49
GATCAAGTGTCTCTACTGTCCATCTTTTGC | 1.08
GCACACATAATAGATGTGCTATATAAAAAC | -0.847
CCCCACCCGCGGTCCGTCCCTCCTGGTCGA | 3.63
CTAAGATAACCATCAAATCCTCGGAAGACG | -1.16
AATCCTCGGAAGACGCACCTCTGCATACTT | -1.09
GAAACCAGAAAAATGGAGCAGCTCTGTATT | -1.02
AGGCGCGCCCGCGCTGCTCGCAAGCAGAAC | -1.13
CTCCTGTTTGTATTCCTTGTCCTTGACCCT | 4.35
